Drawing on patent US10238748B2, “Anti-CDH6 antibody drug conjugates” (Novartis AG, priority 2014, dated 2019), this text covers anti-tumor response for one molecule.

This assay concerns OVCAR-3 ovarian xenograft. The assay is described as follows: OVCAR-3 ovarian xenograft mouse model. The following applies: SMCC-DM1 conjugates, single i.v. dose 10 mg/kg, second selection, FIG. 14. The method, then:
The anti-tumor activity of a selection of anti-CDH6 ADCs were evaluated in the OVCAR-3 ovarian xenograft model. Female NOD-scid-gamma mice were implanted subcutaneously on the right flank with 10×10^6 OVCAR-3 cells containing 50% Matrigel™ (BD Biosciences) in phosphate buffer solution (PBS). The total injection volume containing cells in suspension was 200 μl. Mice were enrolled in the study 29 days post implantation with average tumor volume of 165 mm^3. After being randomly assigned to one of seven groups (n=4/group), mice were administered a single i.v. dose of PBS (10 ml/kg), a non-target isotype control hIgG1-SMCC-DM1 (10 mg/kg), or one of five anti-CDH6-SMCC-DM1 (10 mg/kg). Tumor volumes and body weights were measured twice weekly.
The anti-tumor activity of a second selection of anti-CDH6 ADCs were evaluated in the OVCAR-3 ovarian xenograft model. […] Tumor volumes and body weights were measured twice weekly.
The anti-tumor activity of a selection of anti-CDH6 ADCs were evaluated in the OVCAR-3 ovarian xenograft model. […] Tumor volumes and body weights were measured 1-2 times weekly.
Female NOD-scid-gamma mice were implanted subcutaneously on the right flank with 10×10^6 OVCAR-3 cells containing 50% Matrigel™ (BD Biosciences, San Jose, Calif.) in PBS. […] Tumor volumes and body weights were measured 1-2 times weekly. […]

B1: NOV0690: anti-CDH6 human IgG1 selected from HuCAL PLATINUM phage display; parent of NOV1126 (antibody)
heavy: QVQLLESGGGLVQPGGSLRLSCAASGFTFSDHAIDWVRQAPGKGLEWVSVIAGDGSITYYADSVKGRFTISRDNSKNTLYLQMNSLRAEDTAVYYCARDTGVYREYMDVWGQGTLVTVSSASTKGPSVFPLAPSSKSTSGGTAALGCLVKDYFPEPVTVSWNSGALTSGVHTFPAVLQSSGLYSLSSVVTVPSSSLGTQTYICNVNHKPSNTKVDKRV[sequence of human IgG1 Fc not given]
light: DIELTQPPSVSVSPGQTASITCSGDAIGTKFAHWYQQKPGQAPVLVIYYDHERPSGIPERFSGSNSGNTATLTISGTQAEDEADYYCYSRASSNLVFGGGTKLTVLGQPKAAPSVTLFPPSSEELQANKATLVCLISDFYPGAVTVAWKADSSPVKAGVETTTPSKQSNNKYAASSYLSLTPEQWKSHRSYSCQVTHEGSTVEKTVAPTECS
Regarding B1, the anti-tumor response entry is given as “elicited a response comparable to that of NOV0712-SMCC-DM1”.
